# Data published in PubChem BioAssay AID1745845 (National Center for Advancing Translational Sciences (NCATS), 2022).
# The campaign covered roughly 360,000 compounds. About 2,600 (0.72%) were called active. The inconclusive results got no clear call from the source; some entries with a clear call stand among them for comparison. The call rests on the fitted dose curve; in most records, active means well fitted inhibition curve with a large enough effect; inconclusive means small, poorly fitted or top-dose-only effect; inactive means no such curve, though single readings can be large or run the other way. Potencies beside an inconclusive call are fits to weak or partial responses and may not hold up.
# Assay: Primary qHTS for Inhibitors of ATXN expression; further: nearly all actives have a fitted effect of over 55% in size
# Conditions: HEK-293 ATXN2-luciferase reporter, luminescence, 24 h; activity change, negative = inhibition: at 57 µM (top of the series)
# How it was run: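 qHTS (up to 57 uM final) was run with 24 h compound exposure of reporter cells at 37 °C. Each well was multiplexed: SteadyGlo luminescence measured ATXN2-luciferase expression after a fluorogenic Gly-Phe-AFC viability readout (25 uM final).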
# On the % scale 0 is the no-effect control and ±100 the full control effect; potency means the concentration at half of the fitted maximal effect; tags describe the fitted curve by direction and shape.
SMILES,Potency,"activity change, negative = inhibition"
CCOC(=O)c1c(C)[nH]c(C(=O)Cn2nnc(-c3ccc(Cl)cc3)n2)c1C,"inconclusive: 20 µM [inhibitor, partial curve, poor fit]",
O=C(Nc1ccccn1)C1CCN(S(=O)(=O)c2ccccc2)CC1,inactive,
Cc1ccc(NC(=O)c2sc3nc4c(cc3c2N)CN(Cc2ccccc2)CC4)cc1,"inconclusive: 39.8 µM [inhibitor, single point]",
Cn1nnnc1Sc1ncnc2scc(-c3ccc4c(c3)OCO4)c12,"inconclusive: 39.8 µM [inhibitor, single point]",
Cc1cc(C)n(NC(=S)NC2CCCCC2)c(=O)c1C#N,"inconclusive: 0.212 µM [inhibitor, full curve, poor fit]",
S=C(NCc1ccc2c(c1)OCO2)N1CCN(c2ncnc3c2oc2ccccc23)CC1,"inconclusive: 22.2 µM [inhibitor, partial curve]",
COc1ccc2c(c1)c1c(c(=O)n(CCc3ccccc3)c(=O)n1Cc1ccc(F)cc1)n2C,inactive,
CSc1nc(-c2ccc(Cl)cc2)nc(N)c1C#N,"inconclusive: 10 µM [inhibitor, partial curve]",
C=CCOc1nc2c(c(=O)n(C)c(=O)n2C)n1Cc1ccc(Cl)cc1,inactive,
O=C(NCCCN1CCN(c2ccc(F)cc2)CC1)c1ccc2nc(Cc3ccccc3)oc2c1,"inconclusive: 15.8 µM [inhibitor, partial curve]",
Nc1ccccc1C#Cc1ccc([N+](=O)[O-])cc1,inactive,
COc1ccc2nc(C)cc(N/N=C/c3cccc(OC)c3O)c2c1,"inconclusive: 35.5 µM [inhibitor, single point]",
CCCCNc1nc(Nc2ccc(C)c(Cl)c2)c2cnn(C)c2n1,inactive,
Cc1nc(NCc2ccccn2)c2c3c(sc2n1)CCCC3,inactive,
CCN(CC)CCN(Cc1cc2cc3c(cc2[nH]c1=O)OCO3)C(=S)NCC1CCCO1 (stereo not drawn),"inconclusive: 8.44 µM [inhibitor, partial curve, poor fit]",
COCCNc1nc(NCc2ccc(NC(C)=O)cc2)c2sc(-c3ccccc3)cc2n1,active: 22.4 µM,
O=C1/C(=C/c2ccccc2[N+](=O)[O-])COc2ccccc21,active: 21.2 µM,
COCCCNc1oc(-c2ccc(COc3ccc(Cl)cc3)o2)nc1C#N,"inconclusive: 22.4 µM [inhibitor, single point]",
S=c1[nH]c(-c2ccccc2)cn1/N=C/c1ccc(Br)cc1,inactive,
COc1ccc(Cn2ccc3nc(C)c(C(=O)NCc4ccc(F)cc4)cc3c2=O)cc1,"inconclusive: 0.199 µM [inhibitor, full curve, poor fit]",
Cc1ccc(Cl)cc1N1CCN(Cc2nnc(-c3ccc4c(c3)OCO4)o2)CC1,inactive,
CSc1nc(C)cc(C)c1S(=O)(=O)c1ccccc1C,inactive,
COc1ccc(CN(C)CC(=O)Nc2ccc(SC(F)F)cc2)cc1OC,"inconclusive: 21.2 µM [inhibitor, single point]",
CCN(CC)c1ccc(/C=N/Nc2nc(C)cc(=O)[nH]2)c(O)c1,"inconclusive: 1.12 µM [inhibitor, full curve]",
COc1ccc2c(c1)CCc1c(C(=O)Nc3ccc(OC)c(OC)c3)noc1-2,inactive,

SMILES,Potency,"activity change, negative = inhibition"
CCN(CC)c1ccc(-c2nc(-c3ccccc3C)no2)cc1[N+](=O)[O-],inactive,
Cc1ccc(C)c(Cn2c(C3CC(=O)N(c4ccccc4C)C3)nc3ccccc32)c1 (stereo not drawn),"inconclusive: 39.8 µM [inhibitor, single point]",
Cc1ccc(/C=N/NC(=O)Cc2ccc(Cl)cc2)c(O)c1,"inconclusive: 11.2 µM [inhibitor, partial curve]",
O=c1c2ccc(F)cc2sn1-c1ccccc1,"inconclusive: 39.8 µM [inhibitor, single point]",
COCCn1nnnc1C(C(C)C)N(Cc1cccnc1)Cc1cc2cc(OC)ccc2[nH]c1=O (stereo not drawn),inactive,
CCCCn1nnnc1C(c1cc2ccccc2o1)N1CCN(c2cc(C)nc3ccccc23)CC1 (stereo not drawn),"inconclusive: 25.1 µM [inhibitor, single point]",
CCN(CC)c1ccc(NC(=O)CSc2nc(-c3cccs3)cc(C(F)(F)F)n2)cc1,inactive,
O=C(c1ccc(COc2ccc(Cl)cc2)o1)N1CCN(Cc2ccc3c(c2)OCO3)CC1,"inconclusive: 39.8 µM [inhibitor, single point]",
O=C(Cc1ccc(-n2cccc2)cc1)NCc1cccs1,inactive,
COc1cccc(C(=O)Nc2ccc(NC(=O)C(C)(C)C)cn2)c1,"inconclusive: 22.4 µM [inhibitor, single point]",
CCOc1cccc(C(=O)NC(=S)NCc2cccnc2)c1,inactive,
C=CCn1c(CNc2ccccc2)nnc1SCC(=O)N/N=C/c1ccccc1O,active: 17.8 µM,
COCCN=C1N[C@@H](c2ccc(Br)cc2)C(C(=O)OC)=C(C)N1Cc1ccccc1,"inconclusive: 35.5 µM [inhibitor, single point]",
Cc1cnc(=O)[nH]c1SCc1ccc(C(F)(F)F)cc1,inactive,
O=C(C[n+]1cc(-c2ccc(F)cc2)n2c1CCC2)N1c2ccccc2Sc2ccccc21,inactive,
Cc1cc(C(c2ccc(O)cc2)c2cc(C)c(O)cc2C)c(C)cc1O,inactive,
COc1cc2c(cc1C1NC(=S)NC(C)=C1C(N)=O)CCCC2 (stereo not drawn),inactive,
CC1(C(=O)Nc2cccc3cccnc23)CCN1Cc1ccccc1OC(F)F (stereo not drawn),"inconclusive: 3.98 µM [inhibitor, full curve]",
CCOc1ccc(-c2nn(CC(=O)NC3CCCC3)c3c2cnc2ccc(F)cc23)cc1,inactive,
Cc1nnc(N2CCCC(C(=O)NCCc3ccc(Cl)cc3)C2)c2nn(-c3ccccc3)c(C)c12 (stereo not drawn),inactive,
CC1(C)CCC2=C(O1)c1ccccc1C(=O)C2=O,active: 27.3 µM,
CCCc1nc2oc3c(Cl)ncnc3c2c2c1CCCC2,"inconclusive: 28.2 µM [inhibitor, single point]",
COC(=O)c1sc(NC(=O)c2cc(-c3ccccc3)nc3ccccc23)c(C#N)c1C,"inconclusive: 15.8 µM [inhibitor, partial curve]",
C=CCc1cccc(/C=N/NC(=O)c2ccccc2Br)c1O,"inconclusive: 7.08 µM [inhibitor, full curve]",
CC(C)C[C@H](NC(=O)c1[nH]cnc1C(=O)N[C@@H](C)c1ccccc1)C(=O)OCc1ccccc1,"inconclusive: 39.8 µM [inhibitor, single point]",

SMILES,Potency,"activity change, negative = inhibition"
O=C(NCc1ccccc1)C1CCN(S(=O)(=O)c2cc([N+](=O)[O-])ccc2Cl)CC1,"inconclusive: 1.5 µM [inhibitor, partial curve, poor fit]",
COC(=O)c1ccc(N2CCOCC2)c(NC(=O)Nc2cccc(OC)c2)c1,active: 31.6 µM,
COc1cc(C2c3c(-c4cc(C)ccc4O)n[nH]c3C(=O)N2CCCO)ccc1OCCC(C)C (stereo not drawn),"inconclusive: 39.8 µM [inhibitor, single point]",
CCOc1ccc(NC(=O)CN2CCCN(Cc3cc(C)ccc3C)S2(=O)=O)cc1,"inconclusive: 31.6 µM [inhibitor, partial curve, poor fit]",
O=C1c2ccccc2C(=O)N1CCc1c(-c2ccccc2)[nH]c2ccccc12,"inconclusive: 28.2 µM [inhibitor, single point]",
COc1ccc(-n2nnnc2S(=O)(=O)CC(=O)N2CCCCC2)cc1,active: 12.6 µM,
COc1ccc(C(c2c(C)[nH]n(-c3ccccc3)c2=O)c2c(C)[nH]n(-c3ccccc3)c2=O)cc1OC,inactive,
COC(=O)c1cccc2c(C(=O)O)cc(-c3ccccc3)nc12,inactive,
O=C(Nc1nc2cc3c(cc2s1)OCCO3)c1ccco1,active: 8.91 µM,
COc1ccc2cc(S(=O)(=O)N3CCCCC3)ccc2c1S(=O)(=O)N1CCCCC1,inactive,
CN(C)CCN(Cc1ccco1)C(=O)c1oc2ccccc2c1NC(=O)c1ccccc1,"inconclusive: 20 µM [inhibitor, single point]",
COc1cc(C(=O)N2CCCC(c3cc(C(=O)NCc4ccc(F)cc4)no3)C2)cc(OC)c1C (stereo not drawn),"inconclusive: 31.6 µM [inhibitor, partial curve, poor fit]",
COc1ccc(N2CCN(c3ncnc4scc(-c5ccc(C)cc5)c34)CC2)cc1,"inconclusive: 22.4 µM [inhibitor, single point]",
CN(C(=O)COC(=O)c1cc(S(=O)(=O)N2CCOCC2)c(Cl)cc1Cl)C1CCS(=O)(=O)C1 (stereo not drawn),,inconclusive: -43.9% [inhibitor]
C=CCN=C1NN=C(c2cc(C)n(CC=C)c2C)CS1,active: 26.7 µM,
Clc1ccc(-n2nnnc2Sc2ncnc3sccc23)cc1,"inconclusive: 28.2 µM [inhibitor, single point]",
CCN(CC)C(=O)Cn1cc(SCC(=O)NC)c2ccccc21,inactive,
CCOC(=O)c1c(CN2CCCCC2)n(C)c2cc(Br)c(O)c(CN(C)C)c12,inactive,
C[C@@H]1CN([C@@H](C)CO)C(=O)c2cccc(NS(C)(=O)=O)c2O[C@H]1CN(C)CC1CCCCC1,inactive,
CC(C)Oc1ccc(F)cc1-c1cc(C(=O)N2CCc3ccccc3C2)[nH]n1,"inconclusive: 28.2 µM [inhibitor, single point]",
CCOC(=O)C(=NC1CCS(=O)(=O)C1)NNc1ccc(Br)cc1 (stereo not drawn),"inconclusive: 17.8 µM [inhibitor, single point]",
C[C@@H](CSc1ccc(Br)cc1)CN1CC[C@H](C(C)(C)C)CCC1=O,"inconclusive: 25.1 µM [inhibitor, single point]",
CC(=O)NC(c1cc(Cl)c2cccnc2c1O)C1CC1 (stereo not drawn),active: 8.91 µM,
